The target of this assay is T1, NAC fibers (non-amyloid beta component of senile plaque, aggregated fragment of alpha-synuclein) (UniProt P37840 61-95).
T1 construct: domain: non-amyloid beta component (NAC); Fibrillar aggregate dry-coated on ELISA plates; also called NAC peptide
The experiment in a line: fiber ELISA, polypeptide at 50 and 200 nM. The protocol: The non-amyloid beta component (NAC) of senile plaque is an aggregated fragment of alpha-synuclein, the aggregate that is the hallmark of Parkinson's disease. NAC peptide ((Bachem H2598) was dissolved in 20 mM NaHCO₃ at 600 uM and centrifuged for 1 hour, 100,000×g at 4° C. Supernatant was neutralized with 2N HCl and mixed 1:1 with 10 mM HCl. The peptide was incubated for 4 days at 37° C. and fiber formation confirmed by ThT fluorescence assay.
Fibers were diluted to 1 μM in PBSA-0.02% and dry-coated on Maxisorp Nunc Immunoplate ELISA plates (ThermoFisher Cat no. 442404) by incubation over night at 37° C. Wells were blocked, 200 μl/well, in Superblock (ThermoFisher Cat no. 37515) for 1 hour at room temperature and washed in PBST-0.05%.
The polypeptide of SEQ ID NO:1 and Polypeptide 86 T41G were separately added to the fiber ELISA at 50 and 200 nM and incubated for 1 hour at 37° C. Wells were washed in PBST-0.05% 6×200 μl before incubation with goat anti-human IgG Fc fragment specific-HRP (Jackson labs Cat no. 109-035-008), 1:2500 in TBST-0.05%; 1% milk block (LabScientific Cat no. 732-291-1940), for 45 minutes in room temperature. Plates were washed in 4×200 ul TBST-0.05%, 2×200 ul PBS before adding 50 ul TMB solution (Sigma T0440) per well. […] The absorbance at 450 nm was recorded in a Tecan plate reader (Infinite M1000Pro).
(In general: ELISA stands for enzyme-linked immunosorbent assay.)

B1: N1-N2-hIgG1-Fc fusion protein (SEQ ID NO:1) (Fc fusion)
chain: AETVESCLAKPHTENSFTNVWKDDKTLDRYANYEGCLWNATGVVVCTGDETQCYGTWVPIGLAIPENEGGGSEGGGSEGGGSEGGGTKPPEYGDTPIPGYTYINPLDGTYPPGTEQNPANPNPSLEESQPLNTFMFQNNRFRNRQGALTVYTGTFTQGTDPVKTYYQYTPVSSKAMYDAYWNGKFRDCAFHSGFNEDPFVCEYQGQSSDLPQPPVNAGGGSGGGSGGGSEGGGSEGGGSEGGGSEGGGSGGGSGSGAMVRS[human IgG1 Fc not printed]
Regarding B1, the binding result is “binds”.

B2: Polypeptide 86-T41G (Fc fusion)
chain: AETVESCLAKPHTENSFTNVWKDDKTLDRYANYEGCLWNAGGVVVCTGDETQCYGHWVPIGLAIPENEGGGSEGGGSEGGGSEGGGTKPPEYGDTPIPGYTYINPLDGTYPPGTEQNPANPNPSLEESQPLNTFMFQNNRFRNRQGALTVYTGTFTQGTDPVKTYYQYTPVSSRAMYDAYWNGKFRDCAFHSGFNEDPFVCEYQGQSSDLPQPPANAGGESGGGSGGGSEGGGSEGGGSEGGGSEGGGSGGGSGSGARS[human IgG1 Fc not printed]
Regarding B2, the binding result is reported as “binds”.

The record behind these values is patent publication US20210015895A1 (PROCLARA BIOSCIENCES, published 2021).
